These are yes or no findings as the source states them, for the method shown. For part of these data: In cells and extracts the contact can be indirect. Some results given as binding are weak or reduced against the parent protein; the word gives no strength. For part of these data: Where a sequence is shown, tags or fusion partners need not be part of it.
T1: PEPPER (PEP) (Arabidopsis thaliana) (UniProt Q9SZH4)
T1 sequence: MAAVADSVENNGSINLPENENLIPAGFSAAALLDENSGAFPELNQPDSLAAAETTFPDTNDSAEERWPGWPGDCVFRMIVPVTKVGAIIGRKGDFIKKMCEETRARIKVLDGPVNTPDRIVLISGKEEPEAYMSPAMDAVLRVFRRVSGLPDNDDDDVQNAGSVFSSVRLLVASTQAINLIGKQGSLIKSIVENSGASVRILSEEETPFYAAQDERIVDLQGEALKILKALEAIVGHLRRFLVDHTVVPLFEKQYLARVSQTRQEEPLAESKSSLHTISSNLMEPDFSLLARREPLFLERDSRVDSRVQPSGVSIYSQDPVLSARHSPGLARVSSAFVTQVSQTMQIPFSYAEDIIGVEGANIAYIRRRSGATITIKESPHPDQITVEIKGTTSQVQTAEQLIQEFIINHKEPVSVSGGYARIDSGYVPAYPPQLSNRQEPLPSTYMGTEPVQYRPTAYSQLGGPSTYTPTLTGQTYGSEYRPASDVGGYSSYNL

T2: HUA ENHANCER 4 (HEN4) (Arabidopsis thaliana) (UniProt F4KDN0)
T2 sequence: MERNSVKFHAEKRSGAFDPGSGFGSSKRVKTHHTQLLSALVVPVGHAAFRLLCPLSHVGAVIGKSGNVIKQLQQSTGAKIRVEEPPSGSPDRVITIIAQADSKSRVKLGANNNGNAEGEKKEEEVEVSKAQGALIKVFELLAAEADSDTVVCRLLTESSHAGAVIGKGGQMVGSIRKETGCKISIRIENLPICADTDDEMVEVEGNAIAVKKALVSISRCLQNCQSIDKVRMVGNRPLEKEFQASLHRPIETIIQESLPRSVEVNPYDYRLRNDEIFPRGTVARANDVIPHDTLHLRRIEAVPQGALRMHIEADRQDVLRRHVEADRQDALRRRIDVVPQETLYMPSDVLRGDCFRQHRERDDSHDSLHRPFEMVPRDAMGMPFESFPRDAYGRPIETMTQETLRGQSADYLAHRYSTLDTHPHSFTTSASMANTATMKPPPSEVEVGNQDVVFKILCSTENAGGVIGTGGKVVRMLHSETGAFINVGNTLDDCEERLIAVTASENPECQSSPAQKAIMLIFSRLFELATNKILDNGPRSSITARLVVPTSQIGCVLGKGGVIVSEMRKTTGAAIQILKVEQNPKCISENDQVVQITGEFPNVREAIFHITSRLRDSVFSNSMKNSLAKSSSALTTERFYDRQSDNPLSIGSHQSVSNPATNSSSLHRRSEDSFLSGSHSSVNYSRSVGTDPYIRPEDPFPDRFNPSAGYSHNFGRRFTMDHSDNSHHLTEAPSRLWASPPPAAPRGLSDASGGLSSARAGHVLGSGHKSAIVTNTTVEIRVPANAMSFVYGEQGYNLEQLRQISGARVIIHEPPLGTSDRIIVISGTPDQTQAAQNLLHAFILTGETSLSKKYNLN

T3: HUA1 (Arabidopsis thaliana) (UniProt Q941Q3)
T3 sequence: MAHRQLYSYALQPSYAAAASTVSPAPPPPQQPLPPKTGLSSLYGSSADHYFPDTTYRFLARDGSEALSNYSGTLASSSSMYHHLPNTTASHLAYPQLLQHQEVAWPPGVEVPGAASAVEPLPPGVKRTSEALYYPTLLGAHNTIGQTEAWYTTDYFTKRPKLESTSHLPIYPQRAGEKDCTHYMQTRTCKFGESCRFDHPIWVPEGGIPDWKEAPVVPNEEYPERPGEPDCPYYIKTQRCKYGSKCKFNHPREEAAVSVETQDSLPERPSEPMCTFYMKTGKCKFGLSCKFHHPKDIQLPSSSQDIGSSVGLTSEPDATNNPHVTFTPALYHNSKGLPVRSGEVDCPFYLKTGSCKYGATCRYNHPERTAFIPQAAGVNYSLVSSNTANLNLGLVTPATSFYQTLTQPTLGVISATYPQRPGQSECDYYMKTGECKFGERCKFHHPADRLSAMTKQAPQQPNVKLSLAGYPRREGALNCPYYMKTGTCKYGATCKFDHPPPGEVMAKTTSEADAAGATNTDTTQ

B1: PEPPER (PEP), yeast two-hybrid fusion (protein, UniProt Q9SZH4 1-495)
chain: T1 sequence
B2: FLOWERING LOCUS WITH KH DOMAINS (FLK), yeast two-hybrid fusion (protein, UniProt Q9SR13 1-577)
chain: MAEAEDQQNFVAHNGDQVPDQGSDELHNGLPYQVHDETLVHQPYEVEDPILEPQQYEVPDPTLEPQQYEVPDQTLEPQQYEVDDQLEYHQYQLQDQANEDVQDHSQDDLQYQPQNQEQFQLQDEAHDQAQYQAQGDVQDHNGDEVQDKVEDEEGIPEHLESLQKSEPEEDATVGGEEKRWPGWPGETVFRMLVPAQKVGSIIGRKGDVIKKIVEETRARIKILDGPPGTTERAVMVSGKEEPESSLPPSMDGLLRVHMRIVDGLDGEASQAPPPSKVSTRLLVPASQAGSLIGKQGGTVKAIQEASACIVRVLGSEDLPVFALQDDRVVEVVGEPTSVHRALELIASHLRKFLVDRSIIPFFENQMQKPTRQMDHMPPPHQSWGPPQGHAPSVGGGGYGHNPPPYMQPPPRHDSYYPPPEMRQPPMEKQPHQGISAYGREPPMNVHVSSAPPMVAQQVTQQMQIPLSYADAVIGTSGSNISYTRRLSGATVTIQETRGVPGEMTVEVSGTGSQVQTAVQLIQNFMAEAGAPAPAQPQTVAPEQQGYNPYATHGSVYAAAPTNPPGGYATDYSSGYGY
B3: HUA1, yeast two-hybrid fusion (protein, UniProt Q941Q3 1-524)
chain: T3 sequence
B4: HUA ENHANCER 4 (HEN4) (protein, UniProt F4KDN0 1-857)
chain: T2 sequence
B5: HUA1 (protein, UniProt Q941Q3 1-524)
chain: T3 sequence
B6: PEPPER (PEP) (protein, UniProt Q9SZH4 1-495)
chain: T1 sequence

How the values were obtained:
[1] = target: PEPPER (PEP), yeast two-hybrid fusion (Arabidopsis thaliana) (UniProt Q9SZH4); assay: two-hybrid; yeast EGY48 cotransformed with pGilda and pB42AD constructs; induced with galactose and raffinose; X-gal on plates and ONPG liquid beta-galactosidase assay; empty vectors as negative controls
[2] = target: FLOWERING LOCUS WITH KH DOMAINS (FLK), yeast two-hybrid fusion (Arabidopsis thaliana) (UniProt Q9SR13); assay: as above
[3] = target: HUA1, yeast two-hybrid fusion (Arabidopsis thaliana) (UniProt Q941Q3); assay: as above
[4] = target: T1, PEPPER (PEP) (Arabidopsis thaliana); assay: split reporter; BiFC in agroinfiltrated Nicotiana benthamiana leaf cells; one protein fused to YFPct, the other to YFPnt; fluorescence seen 72 h after inoculation; reciprocal assays gave the same results; YFPct construct with empty YFPnt gave no signal
[5] = target: T2, HUA ENHANCER 4 (HEN4) (Arabidopsis thaliana); assay: as above
[6] = target: T3, HUA1 (Arabidopsis thaliana); assay: as above

Row | Binder | binding [4] | binding [5] | further results
1 | B1 | – | – | binding [1]: binds
2 | B2 | – | – | binding [2]: binds
3 | B3 | – | – | binding [3]: binds
4 | B4 | binds | no binding | –
5 | B5 | binds | binds | binding [6]: binds
6 | B6 | binds | – | –
